# The other results are listed elsewhere or left out. These are further read-outs of the screen, such as a control signal, another cell line or another target. No call is given for them.
# Columns and labels:
# Assay in all cases: Primary Screen for Target Class Profiling of Small Molecule Inhibitors of Methyltransferases
# [1] = target: Glycine N-methyltransferase (Homo sapiens) (UniProt Q14749); conditions: purified enzyme, MTase-Glo SAH luminescence; measured here: GNMT inhibition; at 40 µM; stronger effect = lower value
# How it was run: (§1)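 Each enzyme was assayed with SAM and its substrate. SAH formation detected by MTase-Glo luminescence; single-point 40 uM screen[…].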
# [2] = target: Guanidinoacetate N-methyltransferase (Homo sapiens) (UniProt Q14353); conditions: purified enzyme, MTase-Glo SAH luminescence; measured here: GAMT inhibition; at 40 µM; stronger effect = lower value
# How it was run: as §1
# [3] = target: Histamine N-methyltransferase (Homo sapiens) (UniProt P50135); conditions: purified enzyme, MTase-Glo SAH luminescence; measured here: HNMT inhibition; at 40 µM; stronger effect = lower value
# How it was run: as §1
# [4] = target: Nicotinamide N-methyltransferase (Homo sapiens) (UniProt P40261); conditions: purified enzyme, MTase-Glo SAH luminescence; measured here: NNMT inhibition; at 40 µM; stronger effect = lower value
# How it was run: as §1
# [5] = target: Phenylethanolamine N-methyltransferase (Homo sapiens) (UniProt P11086); conditions: purified enzyme, MTase-Glo SAH luminescence; measured here: PNMT inhibition; at 40 µM; stronger effect = lower value
# How it was run: as §1
# % is scaled to controls: 0 for no effect and ±100 for the full control effect.
SMILES,"activity change, negative = inhibition [1]","activity change, negative = inhibition [2]","activity change, negative = inhibition [3]","activity change, negative = inhibition [4]","activity change, negative = inhibition [5]"
O=C(CCCc1nnc2n3nc(-c4ccccc4)nc3c3ccccc3n12)NCc1ccccc1,-7.34%,-2.23%,-6.51%,-6.47%,-11.2%
OCC1OC(Oc2cc(O)c3c(c2)OC(c2ccc(O)cc2)C(O)C3)C(O)C1O (centres undefined),-0.557%,-4.76%,1.46%,-13.8%,1.54%
CCOC(=O)c1cc2n(n1)CC(C)(C(=O)NC1CCCCCC1)N(c1ccccc1CC)C2=O (centres undefined),7.46%,0%,-2.2%,8.88%,6.46%
O=C(CCc1conc1-c1ccccc1F)NCc1ccc(Cl)cc1,-4.71%,-5.15%,-0.248%,-14.1%,4.35%
O=C(c1csc2nc(-c3ccc(F)cc3)cn12)N1C[C@H]2CC[C@@H](C1)N2,-7.15%,-1.55%,-5.55%,-0.544%,-1.86%
CN1C(=O)c2cc(C(=O)NCc3ccc4c(c3)OCO4)nn2CC1(C)C(=O)NC1CCCCCC1 (centres undefined),4.54%,0%,2.38%,6.68%,2.37%
COC(=O)c1cc2n(n1)CC(C)(C(=O)NC1CCCCC1)N(c1cccc(C)c1C)C2=O (centres undefined),7.39%,0%,12.3%,11.7%,7.43%
CC1CCN(CC[C@H]2CCCN2S(=O)(=O)c2cccc(O)c2)CC1,5.18%,14.1%,7.4%,-1.48%,2.59%
CCc1ccccc1CN1CCCC2(Cc3ccccc3CNC2=O)C1 (centres undefined),-6.88%,-3.04%,-11.6%,-17.8%,-3.12%
COc1ccc2ccc(OCc3nc(C(=O)N4CCCNC(=O)C4)co3)cc2c1,-5%,-3.88%,-4.61%,-6.66%,-18.8%
Clc1cccc(-c2nnn3c2nc(NCc2ccc4c(c2)OCO4)c2ccccc23)c1,0.826%,3.93%,3.23%,-6.25%,-3.69%
CC1(C)CC[C@]2(C(=O)O[C@@H]3O[C@H](CO)[C@@H](O)[C@H](O)[C@H]3O)CC[C@]3(C)C(=CCC4[C@@]5(C)C[C@@H](O)[C@H](O)[C@@](C)(CO)C5CC[C@]43C)C2C1 (some centres undefined),-1.38%,-6.37%,-6.78%,-22.5%,-2.12%
CNC(=O)CCn1ncc2cc(OCc3ccccc3-c3ccc(F)c(Cl)c3)ccc21,-3.42%,2.93%,-0.921%,-18.2%,4.95%
COc1cn(-c2ccc(-n3cccn3)cc2F)nc(-c2ccnn2-c2ccccc2)c1=O,-0.238%,4.48%,10.8%,-15.7%,1.56%
CNc1cc(C)nc(N2CC[C@H](N3CCOCC3)[C@H](CCC(=O)O)C2)n1,-1.56%,-2.37%,-19.2%,-8.12%,-1.99%
CC(Nc1ncnc2nc[nH]c12)c1cc2cccc(Cl)c2c(=O)n1-c1ccccc1 (centres undefined),-6.26%,–,-0.969%,–,–
CCCn1c(=O)c2cc(Cl)ccc2n2c(=O)n(Cc3ccc(C)cc3)nc12,6.31%,0%,11.2%,2.2%,4.35%
CC(C)c1ccc(N2C(=O)c3cc4ccccc4n3CC2(C)C(=O)NC2CCCC2)cc1 (centres undefined),2.78%,4.03%,2.35%,0.718%,2.5%
Cc1ccccc1CSc1nnc2n(CC(C)C)c(=O)c3cc(F)ccc3n12,-4.79%,0%,5.91%,-4.25%,4.48%
Cc1ccc(NC(=O)c2ccc(CN3CCNCC3)cc2)cc1Nc1nccc(-c2cccnc2)n1,-4.71%,8.64%,-23.1%,-15.1%,-4.22%
COc1ccccc1CNC(=O)C1(C)Cn2cnc(C(=O)NCc3ccc(OC(C)C)cc3)c2C(=O)N1C1CC1 (centres undefined),4.66%,3.83%,8.31%,7.84%,7.51%
CCc1cc2c(cc3n2CC(C)(C(=O)NC2CCCCCC2)N(CCCOC(C)C)C3=O)s1 (centres undefined),3.98%,1.59%,7.46%,9.34%,0.21%
CC(C)C(N)C(=O)OCCOCn1cnc2c(=O)[nH]c(N)nc21 (centres undefined),-2.98%,–,-3.63%,–,–
NC(N)=N[C@@H](CCC(=O)O)C(=O)O,-4.5%,6.35%,-1.86%,-3.86%,7.7%
O=C1COc2ccc(-c3ccoc3)nc2CN1Cc1ccccc1,-43.6%,-10.3%,-5.48%,-15%,-3.38%
COC[C@@H]1CN(S(=O)(=O)c2ccc(C)cc2)C[C@H]1c1ccncc1,-1%,0.055%,1.34%,-4.67%,1.58%
CCC1c2ccc(C)n2CCN1C(=O)Nc1ccc(C)c(F)c1 (centres undefined),0.239%,4.72%,0.747%,-3.01%,-2.87%
Cc1cnc(C2CC2)n1CC1CCNCC1,-6.16%,-7.97%,-27.1%,-13.4%,-7.19%
O=C(Cn1c(=O)oc2cc(S(=O)(=O)NCc3ccccc3)ccc21)NCc1ccccc1Cl,14.9%,3.31%,12.1%,7.22%,8.35%
COc1ccc(CN2CCc3nc(C(=O)NCCOc4ccccc4)oc3CC2)cn1,-25.3%,-8.38%,-6.25%,-14.1%,-2.79%
